Consider 19 molecules from the supplement of paper PMC4604168 (melanoma cell lines).

The list shows a part of the results. Single values are uncertain, as repeats are few or missing.
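Also: cells treated in 1,536-well plates, then fixed and DAPI-stained, with nuclei counted from automated high-throughput microscope images.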

One experiment concerns 501Mel. Description: cell count relative to DMSO control; melanoma cells; higher = more viable cells. The note with it: library dose: standard library concentration; 72 h; first compound 2 µM.
For `Cn1sc(=O)n(Cc2ccccc2)c1=O` + COc1ccc2c(c1)CCC1C2CCC2(C)C(NCCCCCCN3C(=O)C=CC3=O)CCC12 [U73122] (partner dose 2 µM), the cell count stood at 83.5%.

`Cn1sc(=O)n(Cc2ccccc2)c1=O` + Cn1cc(/C=C2\C(=O)Nc3cccnc32)c2ccccc21 [GW441756] (partner dose 2 µM) displayed a cell count of 74%.

Molecule `CCCCCCCCCCCCCCCCCCOP(=O)([O-])OC1CC[N+](C)(C)CC1` [Perifosine] + O=C(O)C(=O)Nc1sc2c(c1C(=O)O)CCNC2 [TCS401] (partner dose 8.33333 µM) had a cell count of 82.9%.

Take `Cn1sc(=O)n(Cc2ccccc2)c1=O` + COC(=O)c1sccc1S(=O)(=O)Nc1ccc(Nc2ccccc2)cc1OC [GSK0660] (partner dose 5 µM): the cell count was found to be 73.9%.

For the molecule `Cn1sc(=O)n(Cc2ccccc2)c1=O` + N#Cc1c(O)c2c(-c3ccc(-c4ccccc4O)cc3)csc2[nH]c1=O [A769662] (partner dose 10 µM), the cell count came out at 104%.

A further experiment has as its system A101D. The description is as above. Conditions: library dose: standard library concentration; 72 h; first compound 2 µM.
For the molecule `Cn1sc(=O)n(Cc2ccccc2)c1=O` + C=CCn1c(=O)c2cnc(Nc3ccc(N4CCN(C)CC4)cc3)nc2n1-c1cccc(C(C)(C)O)n1 [MK1775] (partner dose 0.1 µM), the cell count turned out to be 68.8%.

In turn, `C[C@@H](N)c1ccc(C(=O)Nc2ccnc3[nH]ccc23)cc1` + CCN(CC)CCNC(=O)c1c(C)[nH]c(/C=C2\C(=O)Nc3ccc(F)cc32)c1C [sunitinib] (partner dose 2 µM) returned a cell count of 41.7%.

Molecule `CCCCCCCCCCCCCCCCCCOP(=O)([O-])OC1CC[N+](C)(C)CC1` [Perifosine] + Cn1cc(/C=C2\C(=O)Nc3cccnc32)c2ccccc21 [GW441756] (partner dose 2 µM) displayed a cell count of 104%.

In turn, `Cn1sc(=O)n(Cc2ccccc2)c1=O` + COc1cc2ncnc(Nc3ccc(Oc4ccccc4)cc3)c2cc1OC [SrcI1] (partner dose 10 µM) had a cell count of 65.1%.

Turning to `Cn1sc(=O)n(Cc2ccccc2)c1=O` + O=C(O)[C@@H]1[O][Sb](=[O])([O][Sb]2(=[O])[O][C@H]([C@H](O)CO)[C@H](O)[C@H](C(=O)O)[O]2)[O][C@H]([C@H](O)CO)[C@@H]1O [stibogluconate] (partner dose 10 µM), the cell count amounted to 97.5%.

For `C[C@@H](N)c1ccc(C(=O)Nc2ccnc3[nH]ccc23)cc1` + O=C(O)[C@@H]1[O][Sb](=[O])([O][Sb]2(=[O])[O][C@H]([C@H](O)CO)[C@H](O)[C@H](C(=O)O)[O]2)[O][C@H]([C@H](O)CO)[C@@H]1O [stibogluconate] (partner dose 10 µM), the cell count is 76.7%.

`CCCCCCCCCCCCCCCCCCOP(=O)([O-])OC1CC[N+](C)(C)CC1` [Perifosine] + Cc1cc([N+](=O)[O-])ccc1NS(=O)(=O)c1cc(Cl)ccc1Cl [FH535] (partner dose 5 µM) returned a cell count of 71.6%.

In turn, `Cn1sc(=O)n(Cc2ccccc2)c1=O` + CCc1ccc(CCOc2ccc(CC3SC(=O)NC3=O)cc2)nc1 [pioglitazone] (partner dose 10 µM) yielded a cell count of 91.3%.

Molecule `CCCCCCCCCCCCCCCCCCOP(=O)([O-])OC1CC[N+](C)(C)CC1` [Perifosine] + Oc1nc(-c2ccc(C(F)(F)F)cc2)nc2c1CSCC2 [XAV939] (partner dose 10 µM) displayed a cell count of 82.1%.

`CCCCCCCCCCCCCCCCCCOP(=O)([O-])OC1CC[N+](C)(C)CC1` [Perifosine] + Cc1ccc(Nc2nccc(N(C)c3ccc4c(C)n(C)nc4c3)n2)cc1S(N)(=O)=O [Pazopanib] (partner dose 2 µM) came in with a cell count of 83.7%.

With `CCCCCCCCCCCCCCCCCCOP(=O)([O-])OC1CC[N+](C)(C)CC1` [Perifosine] + c1cc(-c2cnn3cc(-c4ccc(OCCN5CCCCC5)cc4)cnc23)ccn1 [Dorsomorphin] (partner dose 2 µM), the cell count is 68.5%.

With `C[C@@H](N)c1ccc(C(=O)Nc2ccnc3[nH]ccc23)cc1` + COc1cc2ncnc(Nc3ccc(Oc4ccccc4)cc3)c2cc1OC [SrcI1] (partner dose 10 µM), the cell count is 59%.

`C[C@@H](N)c1ccc(C(=O)Nc2ccnc3[nH]ccc23)cc1` + COCC[n+]1c2c(n(Cc3cnccn3)c1C)C(=O)c1ccccc1C2=O [YM155] (partner dose 0.002 µM): the cell count stood at 65.5%.

The molecule `CCCCCCCCCCCCCCCCCCOP(=O)([O-])OC1CC[N+](C)(C)CC1` [Perifosine] + O=c1cc(-c2cccc3c2Sc2ccccc2S3)oc(N2CCOCC2)c1 [KU55933] (partner dose 5 µM) gave a cell count of 76.2%.
